# The campaign covered roughly 52,000 compounds. About 1,700 (3.3%) were called active. Cut-off read from the data, not from the text of the source: active = survival mostly below about 52% (no sharp cut-off); inactive = mostly above about 56%. The list shows a part of the results.
# System: Wild type
# Assay: growth inhibition of S. aureus wild type versus tarO mutant, primary screen, teichoic acid synthesis inhibitors, RN4220, OD600 (AID 463173)
# Conditions: S. aureus RN4220 wild type/DeltatarO growth, OD600, 18 h, hits give low values, screened at 18.75 µg/mL (by protocol)
row,Compound,survival
1,Cc1ccc(C2CCN(C(=O)Nc3ccc(Cl)cc3)C2)cc1 (stereo not given),inactive: 71%
2,Cc1c(Cl)cccc1NC(=O)CNS(=O)(=O)c1cccs1,inactive: 91%
3,Cc1nc2sccn2c(=O)c1S(=O)(=O)Nc1ccc(N2CCOCC2)cc1,inactive: 93%
4,Cc1cc(=O)[nH]c2nnc(SCc3c(F)cccc3Cl)n12,inactive: 140%
5,Cc1ccc(OCc2nc(-c3ccc(C(=O)N4CCN(c5cccc(C(F)(F)F)c5)CC4)cc3)oc2C)cc1,inactive: 70%
6,N#CC(C#N)=Cc1ccc(OCC(O)Cn2c3ccccc3c3ccccc32)cc1 (stereo not given),inactive: 106%
7,CCOC(=O)CCn1cnc2onc(-c3cc(OC)ccc3Cl)c2c1=O,inactive: 84%
8,CCOc1ccc2c(c1)sc1nc(=O)n(-c3ccc(Cl)c(Cl)c3)c(=O)n12,inactive: 74%
9,COc1ccc(N(CC(C)C)S(=O)(=O)c2nnc(NC(=O)c3cccs3)s2)cc1,inactive: 50%
10,NS(=O)(=O)c1ccc(N(C(=O)Cn2nnc3ccccc32)C(C(=O)NC2CCCC2)c2cccs2)cc1 (stereo not given),inactive: 102%
11,CSc1cccc(NC(=O)C2CCN(S(=O)(=O)c3ccc4c(c3)CCCN4C(=O)C3CCC3)CC2)c1,inactive: 68%
12,O=C(Nc1ccc2nc(SCC(=O)N3CCc4ccccc43)sc2c1)c1cccc(F)c1,inactive: 87%
13,CCOC(=O)c1sc(=S)n(C)c1C,inactive: 111%
14,COc1ccc(Cl)cc1NC(=O)CSc1nc2ccccc2c2nc(-c3ccccc3)nn12,inactive: 71%
15,Cc1ccccc1-c1nc(CS(=O)(=O)CC(=O)NCCc2ccccc2)c(C)o1,inactive: 84%
16,Cc1cccc(NC(=O)c2ccc3c(O)c(S(=O)(=O)c4ccccc4)c(=O)[nH]c3c2)c1C,inactive: 89%
17,Cc1ccc(C(=O)Nc2ccccc2)cc1S(=O)(=O)Nc1ccc(Br)cc1,active: 7%
18,Cc1ccc(C(=O)N2CCc3cc(CNC(=O)c4ccc(Br)cc4)ccc32)cc1,inactive: 75%
19,COc1ccc(CSc2nnc(C)s2)cc1F,inactive: 98%
20,O=S(=O)(c1ccc(-c2cc(C(F)(F)F)on2)s1)N1CCN(c2ccccc2)CC1,inactive: 83%
21,COCCNC(=O)CCn1c(=O)c2cc(OC)c(OC)cc2n(CC(=O)Nc2ccccc2C)c1=O,inactive: 92%
22,CS(=O)(=O)NCC(c1ccco1)N1CCN(c2ccc(F)cc2)CC1 (stereo not given),inactive: 112%
23,CCOC(=O)c1cnc2c(Cl)cc(Cl)cc2c1Nc1cc(C(=O)O)ccc1C,inactive: 61%
24,Cc1cccc(C)c1NC(=O)C(=O)NCC(c1ccc2c(c1)OCO2)N1CCOCC1 (stereo not given),inactive: 66%
25,CCN(C(=O)CSc1nnc2scc(-c3cccc(OC)c3)n12)c1ccccc1,inactive: 110%
26,CCc1ccccc1NC(=O)Nc1cc(C(=O)NCc2cccc(F)c2)ccc1N1CCCC1,inactive: 78%
27,COCCCn1c(=N)c(C(=O)NCc2ccco2)cc2c(=O)n3cccc(C)c3nc21,inactive: 75%
28,Cc1oc(-c2cccc(Cl)c2)nc1CN1CCCC(C(=O)NCCc2ccc(Cl)cc2)C1 (stereo not given),active: -2%

row,Compound,survival
1,CCc1ccc(S(=O)(=O)c2nnn3c2nc(Nc2ccc(C)c(Cl)c2)c2sccc23)cc1,inactive: 85%
2,O=C(Cn1ncn2nc(-c3cccs3)cc2c1=O)NCc1ccc(Cl)cc1,inactive: 90%
3,CC(C)CNC(=O)C(=O)Nc1c2c(nn1-c1ccccc1)CS(=O)(=O)C2,inactive: 72%
4,CCn1c(SCc2cccc(Br)c2)nnc1-c1nonc1NC(C)=O,inactive: 109%
5,CC(=O)Nc1cc(C(=O)NCc2ccc(C)cc2)ccc1S(=O)(=O)c1ccc(Cl)cc1,inactive: 85%
6,CCOC(=O)CN1C(C(=O)c2ccccc2)=C(OC(=O)C(C)(C)C)c2ccccc2S1(=O)=O,inactive: 51%
7,CCOc1ccc2nc(NCCNC(=S)NC)c(C#N)cc2c1,inactive: 106%
8,CSc1cccc(NC(=O)Cn2c(=O)n(Cc3ccccc3)c(=O)c3sc4ccccc4c32)c1,inactive: 89%
9,Cc1cc(C)n(-c2nc3cc(Cl)ccc3nc2Nc2ccc(C)c(F)c2)n1,inactive: 86%
10,Cc1cc(C)c(NC(=O)c2cc(S(=O)(=O)NCCC3=CCCCC3)ccc2F)c(C)c1,inactive: 94%
11,Cc1ccc(-n2ncc(C(=O)NCCN3CCCC3)c2C2CCN(C(=O)OC(C)(C)C)CC2)cc1,inactive: 153%
12,CCn1ccc2cc(S(=O)(=O)N3CCC(C(=O)NCc4cccc(Cl)c4)CC3)ccc21,inactive: 85%
13,CCOC(=O)c1sc(N/C=C(\C#N)c2nc3cc(Cl)ccc3o2)c(C#N)c1C,inactive: 98%
14,O=C(CN(Cc1ccc2c(c1)OCO2)C(=O)c1cnsn1)NC1CCCC1,inactive: 109%
15,CCOc1ccc(N(C)S(=O)(=O)c2c(C(=O)N3CCC(C)CC3)c(C)n(C)c2C)cc1,inactive: 66%
16,Cc1cccc(-n2ncc(C(=O)N3CCN(Cc4ccccc4)CC3)c2C2CCN(C(=O)OC(C)(C)C)CC2)c1,inactive: 70%
17,CCOc1ccccc1NC(=O)N1c2ccccc2Sc2ccccc21,inactive: 61%
18,COc1ccc(Cn2c(CCC(=O)Nc3ccc(C)cc3)nc3cccnc32)cc1,inactive: 133%
19,COc1ccc(Nc2cc(C(=O)NCc3cccs3)c3ccccc3n2)cc1,inactive: 145%
20,CCCCOC(=O)Cn1nnc2sc(-c3ccccc3)cc2c1=O,inactive: 92%
21,CN1CCN(C(=O)C(=O)Nc2c3c(nn2-c2cccc(Cl)c2)CSC3)CC1,inactive: 60%
22,COc1ccc(CCNC(=O)CSc2cn(CCNC(=O)c3ccccc3F)c3ccccc23)cc1OC,inactive: 144%
23,O=C(CCCCn1c(=O)c2ccccc2n(CC(=O)Nc2ccc(F)cc2F)c1=O)NCc1ccccc1Cl,inactive: 115%
24,O=C(CSc1ncc(-c2ccccc2)[nH]1)Nc1ccc(F)cc1F,inactive: 62%
25,CCOc1ccc(C2=C(C(=O)CC)Sc3nncn3N2C(=O)CC)cc1,active: -1%
26,CCc1ccccc1N1C(=O)N(CC(=O)c2ccc(Cl)cc2)c2ccccc2S1(=O)=O,inactive: 99%
27,Cc1ccc(Cn2c(=O)n(CCc3ccccc3)c(=O)c3c(C)c(C)sc32)cc1,active: 22%

# Source: PubChem BioAssay AID463173 (ICCB-Longwood Screening Facility, Harvard Medical School, 2010)
